This is one part of the list. The full chains were built here from the parent and the listed change. Values near 0.05 are background.
B1: TEV protease; numbered along this chain (parent)
chain: MGESLFKGPRDYNPISSSICHLTNESDGHTTSLYGIGFGPFIITNKHLFRRNNGTLVVQSLHGVFKVKDTTTLQQHLVDGRDMIIIRMPKDFPPFPQKLKFREPQREERICLVTTNFQTKSMSSMVSDTSCTFPSGDGIFWKHWIQTKDGQCGSPLVSTRDGFIVGIHSASNFTNTNNYFTSVPKNFMELLTNQEAQQWVSGWRLNADSVLWGGHKVFMVKPEEPFQPVKEATQL

Variants of: B1
Experiment: raw area under fraction-flipped curve 0-4 h after induction (AUC4h, not background-subtracted), DNA-recorder readout of cleavage of the substrate (dimensionless); higher = more cleavage of the substrate by the protease variant
Conditions: temperature: 34 °C; time window: 0-4 h after rhamnose induction
Experimental: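 In vivo DNA recorder in E. coli TOP10(DE3) ΔrhaA at 34 °C. Each TEVp single-site mutant (parent TEVp 0) is paired with a single-site variant of the 7-mer TEVs (canonical ENLYFQ|S). The substrate sits between flexible linkers in a Bxb1-sfGFP-TEVs-SsrA fusion, so cleavage stabilises Bxb1 and speeds flipping of a recombination array, read by NGS. The value is the raw area under the fraction-flipped curve over 0-4 h after rhamnose induction (AUC4h), with ≥20 reads per time point. It is not background-subtracted; inactive controls average about 0.047.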
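Note: Bxb1 expression induced with 0.2% (w/v) L-rhamnose at OD600 near 0.5, cultures sampled hourly, flipped fraction per protease–substrate barcode pair counted by paired-end Illumina sequencing.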

Variant	area with substrate ENLYFAS	area with substrate ENLYFDS	area with substrate ENLYFES	area with substrate ENLYFFS	area with substrate ENLYFGS	area with substrate ENLYFHS	area with substrate ENLYFIS	area with substrate ENLYFKS	area with substrate ENLYFLS	area with substrate ENLYFMS	area with substrate ENLYFNS	area with substrate ENLYFPS	area with substrate ENLYFRS	area with substrate ENLYFSS	area with substrate ENLYFTS	area with substrate ENLYFVS	area with substrate ENLYFWS	area with substrate ENLYFYS	area with substrate ENLYFCS
P184I	0.0504	0.0413	0.0617	0.0706	0.0635	0.06	0.0545	0.0555	0.0613	0.0557	0.0572	0.0646	0.057	0.0513	0.0629	0.0327	0.043	0.0466	–
P184N	0.0277	0.05	0.0557	0.0508	0.0588	0.062	0.0566	0.0579	0.0591	0.0595	0.0635	–	0.049	0.0462	0.0609	–	0.0868	–	0.0362
P184S	0.0628	0.0549	0.0618	0.0662	0.0651	0.0611	0.0518	0.0673	–	0.0605	–	0.0728	0.0535	0.0601	0.054	–	0.0529	0.0537	0.0618
P184W	0.0418	0.0465	0.056	–	–	0.0438	0.049	0.059	–	0.0678	0.055	0.0611	0.0529	–	0.0762	–	0.0577	0.0757	–
T192E	0.0693	0.0561	–	0.064	0.053	0.0584	0.0666	–	–	0.0763	0.0676	–	0.0475	–	0.0514	–	0.056	0.0637	0.0562
T192G	0.0437	0.0546	0.0694	0.061	–	–	0.0543	–	–	0.0788	–	–	0.076	–	0.0603	0.0807	0.0524	0.0537	0.0867
T192H	0.0807	0.0561	0.0656	0.0635	0.0633	0.0633	0.0473	0.0601	0.0694	0.0468	–	0.0594	0.0645	0.0563	0.0583	0.0863	0.0616	–	0.0602
T192Q	0.0572	–	0.072	0.0602	0.0696	–	0.0565	0.0318	–	0.0651	0.068	0.0658	0.0622	0.0656	0.0577	0.0551	0.0614	0.0607	0.0557
Q197W	0.064	0.054	–	0.0667	0.062	–	0.0532	0.0623	–	0.0569	0.0458	0.0648	–	0.0445	0.0528	0.0633	0.0534	–	0.0586
Q198K	0.0102	0.0551	0.0705	0.0622	0.0687	0.0393	0.053	0.0635	–	0.0667	–	0.087	–	0.0907	–	–	0.0498	0.0552	–
V200A	0.0611	0.059	–	–	–	–	–	–	–	–	–	0.0603	–	–	0.0702	–	–	0.051	–
V200H	0.0544	0.0713	0.065	0.0699	0.0577	0.0069	0.0613	0.0766	0.0633	0.0389	0.0436	0.0634	0.0524	0.0588	0.0482	0.0087	0.0537	–	0.0601
V200L	0.0542	0.0475	0.0521	0.0814	–	0.082	0.0458	–	–	–	0.0549	0.0621	–	0.049	–	–	–	–	–
V200P	0.0606	–	0.0565	–	0.0694	–	0.0647	–	–	0.102	0.058	0.0531	0.0646	–	–	–	–	–	0.0708
V200T	0.0538	–	0.0683	0.0638	–	–	0.053	0.074	0.0656	–	–	0.0734	–	–	–	–	–	0.0634	–
W203A	0.0543	–	0.0524	0.0573	–	0.0503	–	–	0.0623	0.0559	0.0461	0.0687	0.0534	0.0415	–	0.0122	–	–	0.0537
R204K	0.054	–	0.0675	0.0855	–	–	0.0597	0.0643	–	0.0742	–	–	0.0691	0.0652	0.0554	–	0.0417	0.0508	–
D208Q	0.0629	–	0.0559	0.0667	–	0.0545	0.0563	0.0548	–	0.0645	0.0556	0.0584	0.0559	0.0514	0.0524	0.0555	–	0.0475	0.056
D208S	0.0635	–	0.0743	–	–	–	–	–	–	0.0712	–	–	0.0442	0.0558	0.0676	–	–	–	–
D208V	0.0637	0.0504	0.0528	0.0656	–	0.0676	0.0609	–	0.0557	0.0585	0.0542	0.0624	0.0565	0.0622	0.0596	–	0.072	0.0511	0.0775
K216D	0.062	–	–	–	–	–	0.0735	–	–	–	–	–	–	–	–	–	0.0497	–	–
K216F	0.0566	–	0.0407	0.0565	–	–	0.0579	–	–	0.059	0.0583	0.0541	0.056	–	–	–	0.0552	–	0.0551
K216G	0.0545	–	0.0634	0.0655	0.0661	0.0498	0.0495	0.0626	–	–	0.0555	0.0494	0.0445	0.0287	0.0495	–	0.052	–	0.057
K216H	0.0523	–	0.0645	0.0705	–	–	0.0511	–	–	–	0.0569	0.0535	–	0.0586	0.0528	0.0533	0.0533	–	0.0588
K216R	0.0506	–	0.0646	–	–	–	–	–	–	–	0.0864	–	–	0.0483	0.0544	0.0551	–	–	–
K216S	0.0528	–	–	–	–	0.0661	–	–	–	–	0.0679	0.0631	–	–	0.0468	0.0487	–	0.0774	–
K221R	0.0536	0.0629	0.0625	0.0703	–	0.0553	0.055	0.0651	–	0.0608	0.066	0.0561	0.0547	0.0656	0.0586	0.0158	0.0456	0.0651	0.0496
P222H	0.0592	0.0655	0.0626	0.066	–	0.0541	0.0589	0.0739	0.0592	0.0593	–	0.0651	–	–	0.063	–	0.0606	–	0.0544
E224A	0.0635	–	0.0574	0.0705	–	0.0552	0.0628	–	0.0511	0.0695	0.0643	0.0611	0.0565	0.0566	0.0622	0.0553	0.058	0.0554	0.0636
